Changes are numbered by the printed parent chain; changes in the protein carry UniProt numbers. This is one part of the list.
T1: RBFOX1 RRM RbFoxmut (Fox-RRM*) (Homo sapiens, UniProt Q9NWB1 109-208, R118D;E147R;N151S;E152T)
T1 sequence: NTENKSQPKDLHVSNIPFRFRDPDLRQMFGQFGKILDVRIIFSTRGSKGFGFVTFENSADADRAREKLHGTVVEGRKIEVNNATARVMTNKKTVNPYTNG

B1: GGGCUCC (DNA:RNA)
RNA: GGGAGACCGGAAUUCAGAUUGUCCGGGCUCCUUAAAUCCCGUCGUAGCCACCA
DNA 1: CAATCTGAATTCCGGTCTCCC
DNA 2: TGGTGGCTACGACGGGATT
B2: UAAGGGU (DNA:RNA)
RNA: GGGAGACCGGAAUUCAGAUUGUCCUAAGGGUUUAAAUCCCGUCGUAGCCACCA
DNA 1: CAATCTGAATTCCGGTCTCCC
DNA 2: TGGTGGCTACGACGGGATT
B3: GGACUCA (DNA:RNA)
RNA: B1 RNA with G27A, C31A
DNA 1: CAATCTGAATTCCGGTCTCCC
DNA 2: TGGTGGCTACGACGGGATT
B4: GCCGGCC (DNA:RNA)
RNA: B1 RNA with G26C, G27C, C28G, U29G
DNA 1: CAATCTGAATTCCGGTCTCCC
DNA 2: TGGTGGCTACGACGGGATT
B5: CACCUAA (DNA:RNA)
RNA: B1 RNA with G25C, G26A, G27C, C30A, C31A
DNA 1: CAATCTGAATTCCGGTCTCCC
DNA 2: TGGTGGCTACGACGGGATT
B6: CAUGGCG (DNA:RNA)
RNA: B2 RNA with U25C, A27U, G30C, U31G
DNA 1: CAATCTGAATTCCGGTCTCCC
DNA 2: TGGTGGCTACGACGGGATT
B7: AGGGGCA (DNA:RNA)
RNA: B1 RNA with G25A, C28G, U29G, C31A
DNA 1: CAATCTGAATTCCGGTCTCCC
DNA 2: TGGTGGCTACGACGGGATT
B8: AAACGAG (DNA:RNA)
RNA: B2 RNA with U25A, G28C, G30A, U31G
DNA 1: CAATCTGAATTCCGGTCTCCC
DNA 2: TGGTGGCTACGACGGGATT
B9: GCCAUAC (DNA:RNA)
RNA: B1 RNA with G26C, G27C, C28A, C30A
DNA 1: CAATCTGAATTCCGGTCTCCC
DNA 2: TGGTGGCTACGACGGGATT
B10: CUUGUAC (DNA:RNA)
RNA: B1 RNA with G25C, G26U, G27U, C28G, C30A
DNA 1: CAATCTGAATTCCGGTCTCCC
DNA 2: TGGTGGCTACGACGGGATT
B11: GGCAUAU (DNA:RNA)
RNA: B1 RNA with G27C, C28A, C30A, C31U
DNA 1: CAATCTGAATTCCGGTCTCCC
DNA 2: TGGTGGCTACGACGGGATT
B12: CUGUCAC (DNA:RNA)
RNA: B1 RNA with G25C, G26U, C28U, U29C, C30A
DNA 1: CAATCTGAATTCCGGTCTCCC
DNA 2: TGGTGGCTACGACGGGATT
B13: GGUCAAU (DNA:RNA)
RNA: B1 RNA with G27U, U29A, C30A, C31U
DNA 1: CAATCTGAATTCCGGTCTCCC
DNA 2: TGGTGGCTACGACGGGATT
B14: UAACCAG (DNA:RNA)
RNA: B2 RNA with G28C, G29C, G30A, U31G
DNA 1: CAATCTGAATTCCGGTCTCCC
DNA 2: TGGTGGCTACGACGGGATT
B15: UCAUAAC (DNA:RNA)
RNA: B2 RNA with A26C, G28U, G29A, G30A, U31C
DNA 1: CAATCTGAATTCCGGTCTCCC
DNA 2: TGGTGGCTACGACGGGATT
B16: UGCCCAC (DNA:RNA)
RNA: B1 RNA with G25U, G27C, U29C, C30A
DNA 1: CAATCTGAATTCCGGTCTCCC
DNA 2: TGGTGGCTACGACGGGATT
B17: CCAUCAG (DNA:RNA)
RNA: B2 RNA with U25C, A26C, G28U, G29C, G30A, U31G
DNA 1: CAATCTGAATTCCGGTCTCCC
DNA 2: TGGTGGCTACGACGGGATT
B18: GAGGCAA (DNA:RNA)
RNA: B1 RNA with G26A, C28G, U29C, C30A, C31A
DNA 1: CAATCTGAATTCCGGTCTCCC
DNA 2: TGGTGGCTACGACGGGATT
B19: UUCAGCG (DNA:RNA)
RNA: B2 RNA with A26U, A27C, G28A, G30C, U31G
DNA 1: CAATCTGAATTCCGGTCTCCC
DNA 2: TGGTGGCTACGACGGGATT
B20: CUGAAUU (DNA:RNA)
RNA: B1 RNA with G25C, G26U, C28A, U29A, C30U, C31U
DNA 1: CAATCTGAATTCCGGTCTCCC
DNA 2: TGGTGGCTACGACGGGATT

target: T1, RBFOX1 RRM RbFoxmut (Fox-RRM*); assay: EMSA; HiTS-Eq, 1 nM pool, 10 min; buffer printed only for the single-RNA assays: 10 mM Tris pH 7.5, 150 mM NaCl, 3.4 mM EDTA, 0.001% NP-40, 30 C; conditions: tags: His6 N-terminal (pET28a); label: 5' 32P
Outline: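 Purified RbFox RRM, wild type or mutant, was incubated for 10 min in 50 µL with 1 nM of a 5′-radiolabelled RNA pool carrying 7 randomized nucleotides, whose flanks were annealed to DNA oligonucleotides, over a series of increasing protein concentrations. Unbound RNA was resolved on 8% native PAGE, cut out, reverse-transcribed, barcoded by PCR and sequenced on an Illumina HiSeq 2500. Relative association constants were derived from changes in read counts for each RNA species versus the control reaction and normalised to the cognate motif.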

| Binder | binding signal |
| --- | --- |
| B1 | 0.0437 KA relative to UGCAUGU |
| B2 | 0.0766 KA relative to UGCAUGU |
| B3 | 0.0918 KA relative to UGCAUGU |
| B4 | 0.192 KA relative to UGCAUGU |
| B5 | 0.0988 KA relative to UGCAUGU |
| B6 | 0.143 KA relative to UGCAUGU |
| B7 | 0.12 KA relative to UGCAUGU |
| B8 | 0.0778 KA relative to UGCAUGU |
| B9 | 0.0951 KA relative to UGCAUGU |
| B10 | 0.134 KA relative to UGCAUGU |
| B11 | 0.112 KA relative to UGCAUGU |
| B12 | 0.0886 KA relative to UGCAUGU |
| B13 | 0.066 KA relative to UGCAUGU |
| B14 | 0.0724 KA relative to UGCAUGU |
| B15 | 0.0826 KA relative to UGCAUGU |
| B16 | 0.0789 KA relative to UGCAUGU |
| B17 | 0.113 KA relative to UGCAUGU |
| B18 | 0.0508 KA relative to UGCAUGU |
| B19 | 0.168 KA relative to UGCAUGU |
| B20 | 0.0535 KA relative to UGCAUGU |
